Test results from PubChem BioAssay AID493208 (National Center for Advancing Translational Sciences (NCATS), 2011).
In all, about 44,000 compounds went through this assay and about 340 (0.77%) were called active. Roughly 5% stayed inconclusive and do not appear here. The call rests on the fitted dose curve; in most records, active means well fitted inhibition curve with a large enough effect; inconclusive means small, poorly fitted or top-dose-only effect; inactive means flat fitted curve, though single readings scatter. This is one part of the list.

Test: Acumen qHTS Assay for Inhibitors of the mTORC1 Signaling Pathway in MEF (Tsc2-/-, p53-/-) Cells: Sytravon; further: nearly all actives have a fitted effect of over 50% in size;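 on activity change, negative = inhibition: plate controls were DMSO for no effect and rapamycin for full effect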
Details: phospho-rpS6 immunofluorescence/PI, 24 h; series mostly up to 38.3 µM; activity change, negative = inhibition: at the top concentration
Summary of the method: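 Readout is phospho-S6 Alexa 488 signal normalized to PI per well, reported as % active cells with thresholds set from rapamycin (7.5 nM) and DMSO controls. Cells: Tsc2-/-, p53-/- MEFs, 24 hrs compound at 37 C; PI cell number serves as viability.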
Potency means the concentration at half of the fitted maximal effect.

Row | SMILES | activity change, negative = inhibition | Potency
1 | Cc1cc(=O)n2nc(N3CCC(C(=O)Nc4ccc(C)c(Cl)c4)CC3)sc2n1 | inactive: 0.689% | 
2 | Cc1ccc(N(Cc2cccs2)C(=O)c2ccc(Br)o2)cc1 | inactive: 0.147% | 
3 | COc1ccc(CNC(=O)Cc2c(C)c3c(cc(C)c4c(C)c(C)oc43)oc2=O)cc1 | inactive: 0.587% | 
4 | CCSc1ncc(Cl)c(C(=O)Nc2nc3ccc(OC)cc3s2)n1 | inactive: 3.69% | 
5 | CCc1nonc1NC(=O)c1oc2ccccc2c1C | inactive: -3.89% | 
6 | COc1ccc(CNC(=O)CCS(=O)(=O)c2ccc3c(c2)oc(=O)n3C)cc1 | inactive: 6.72% | 
7 | Cc1ccc(CNC(=O)c2ccc3c(O)c(S(=O)(=O)c4ccccc4)c(=O)[nH]c3c2)cc1 | inactive: -7.6% | 
8 | CCOC(=O)N1CCC(NC(=O)c2ccc3c(c2)N(Cc2ccc(F)cc2)C(=O)c2ccccc2S3(=O)=O)CC1 | inactive: 2.01% | 
9 | CCOc1ccc(NC(=O)C(NS(=O)(=O)c2ccc3c(c2)CCN3C(C)=O)C(C)C)cc1 (stereo unspecified) | inactive: 0.618% | 
10 | CCOc1ccccc1NC(=O)c1nnn(CC(=O)Nc2ccc(OC)c(OC)c2)c1N | inactive: 2.82% | 
11 | COc1ccc(OC)c(C(C)NC(=O)Cn2c(=O)cc(C)c3c(C)nn(-c4ccc(C)cc4)c32)c1 (stereo unspecified) | inactive: 2.69% | 
12 | Cc1ccc(C)c(N2CCN(Cc3csc(C)c3C)CC2)c1 | inactive: 2.05% | 
13 | COc1ccccc1-c1cc(C(=O)N2CCCCC2C)no1 (stereo unspecified) | inactive: -5.9% | 
14 | Nc1c(-c2nc(-c3cccs3)no2)nnn1-c1cccc(Cl)c1 | inactive: 0.534% | 
15 | COc1ccc(CNC(=O)c2nn(-c3ccccc3C)nc2CO)cc1 | inactive: 0.175% | 
16 | CCc1ccc(Nc2ncnc3c2cnn3-c2cc(Cl)ccc2C)cc1 | inactive: -15.3% | 
17 | COc1cccc(CNC(=O)C(NS(=O)(=O)c2ccc3c(c2)CCN3C(C)=O)C(C)C)c1 (stereo unspecified) | inactive: -12.2% | 
18 | CCn1cc(C(=O)OCC(=O)Nc2ccc(F)cc2F)c(=O)c2ccc(C)nc21 | inactive: 5.35% | 
19 | COC(=O)c1ccc(Cn2c(=O)cc(C(F)(F)F)c3c(C)nn(C)c32)cc1 | inactive: 0.028% | 
20 | CCCn1c2ccccc2c2cnn(CC(=O)NCCc3ccccc3)c(=O)c21 | inactive: 3.69% | 
21 | CCOc1ccc(S(=O)(=O)N(CC(=O)NCCSc2ccccc2)c2ccccc2)cc1 | inactive: -4.18% | 
22 | O=C(Cn1c2ncccc2c(=O)n1-c1ccccc1)Nc1ccc(F)c(F)c1 | inactive: -13.9% | 
23 | Cc1ccccc1Cn1c(=O)n(CCc2ccccc2)c(=O)c2ccccc21 | inactive: -2.06% | 
24 | CCc1ccccc1NC(=O)NCc1ccc2c(c1)CCN2C(=O)c1ccccc1 | inactive: -7.05% | 

Row | SMILES | activity change, negative = inhibition | Potency
25 | O=C(Nc1ccccc1C(=O)OCc1cc(=O)n2c3c(sc2n1)CCCC3)c1cccc(Cl)c1 | inactive: 0% | 
26 | CCCn1ccc2c(OCC(=O)NCc3ccccc3Cl)cccc2c1=O | inactive: 1.81% | 
27 | O=C(CSc1nccn1Cc1ccccc1)NCc1ccccc1Cl | inactive: -20.5% | 
28 | Cc1cc(C)nc(NS(=O)(=O)c2ccc(NC(=O)COc3ccc(C(C)(C)C)cc3)cc2)n1 | inactive: -10.6% | 
29 | CCOC(=O)CC(NC(=O)N1CCC(CN2CCC(C)CC2)CC1)c1ccccc1 (stereo unspecified) | inactive: -0.0457% | 
30 | CC(C)Cn1cc(NC(=O)N2CCN(c3ccccc3F)CC2)c2ccccc2c1=O | inactive: -2.87% | 
31 | Cc1cccc(C)c1Nc1c(-c2ccsc2)nc2ccc(Cl)cn12 | inactive: -14.1% | 
32 | COc1ccc(OC)c(CCNC(=O)c2cnn(-c3ccccc3)c2C2CCN(C(=O)OC(C)(C)C)CC2)c1 | inactive: -3.56% | 
33 | COc1ccc(-c2cn3nc(N4CCCC(C(=O)NCc5ccccc5Cl)C4)sc3n2)cc1 (stereo unspecified) | inactive: 2.19% | 
34 | Cc1cccc(CNC(=O)CCn2ccc3cc(S(=O)(=O)N4CCCC4)ccc32)c1 | inactive: -6.77% | 
35 | COc1cc(OC)cc(N2CCN(S(=O)(=O)c3ccc(-n4cnnn4)cc3)CC2)c1 | inactive: -3.74% | 
36 | O=c1c(N2CCN(c3cccc(C(F)(F)F)c3)CC2)csc2ccc(Cl)cc12 | inactive: 2.58% | 
37 | Cc1ccccc1CSc1nc2c(sc3ccccc32)c(=O)n1CCCOC(C)C | inactive: 1.22% | 
38 | COC(=O)c1cc2oc3ccccc3c2n1Cc1cc(C)ccc1C | inactive: -0.285% | 
39 | Cc1nn(C)c2c1c(-c1ccccc1)cc(=O)n2C(C)C(=O)NCc1ccc(F)cc1 (stereo unspecified) | inactive: 3.77% | 
40 | O=C1CC(c2ccccc2)Cc2[nH]c(=O)c(-c3nc(-c4ccc(Cl)cc4)cs3)cc21 (stereo unspecified) |  | active: 5.85 µM
41 | CCN1CCN(C(c2cccc(F)c2)c2c(O)cc(C)n(Cc3ccco3)c2=O)CC1 (stereo unspecified) | inactive: 10.7% | 
42 | CCSc1nnc2c(n1)OC(CC)N(C(C)=O)c1ccccc1-2 (stereo unspecified) | inactive: -0.189% | 
43 | Cc1ccc(-n2nnnc2CNC(=O)C(C)C)cc1C | inactive: -0.614% | 
44 | CC(=O)c1ccc(N2CCN(S(=O)(=O)c3ccc4[nH]c5c(c4c3)CCCC5)CC2)cc1 | inactive: 0.534% | 
45 | O=C(NCCC1=CCCCC1)c1ccc2c(c1)ncn2-c1ccc(F)c(F)c1 | inactive: -1.81% | 
46 | O=C(NCc1cccc(F)c1)c1cccc(NC(=O)c2nsc3ccccc23)c1 | inactive: -8.55% | 
47 | COc1ccc(OC)c(C2c3c(oc4ccc(C)cc4c3=O)C(=O)N2CCCN(C)C)c1 (stereo unspecified) | inactive: -1.36% | 
48 | CCc1ccc(Nc2nc(N)nc(CSc3nc4ccccc4s3)n2)cc1 | inactive: -11.1% | 

Row | SMILES | activity change, negative = inhibition | Potency
49 | CCN(Cc1ccccc1)Cc1c(O)ccc2c(=O)c(-c3ccccc3Cl)c(C(F)(F)F)oc12 | inactive: -0.412% | 
50 | CC(=O)Nc1cccc(NC(=O)c2c(-c3ccccc3)c(-c3ccccc3)nn(C)c2=O)c1 | inactive: 5.66% | 
51 | CCc1ccccc1NS(=O)(=O)c1ccc2c(c1)OCC(C(=O)N1CCCC1)O2 (stereo unspecified) | inactive: -2.08% | 
52 | CCCN(CCC)C(=O)CSc1nc2sc3c(c2c(=O)n1-c1ccccc1)CCN(C(C)=O)C3 | inactive: 0% | 
53 | CCOCc1cc(CN2CCN(c3cccc(Cl)c3)CC2)c(O)c2ncccc12 |  | active: 11.7 µM
54 | COc1cccc(CNC(=O)C2CCN(c3nnc(-n4c(C)ccc4C)s3)CC2)c1 | inactive: 0.985% | 
55 | Cc1cccc(-n2ncc3c(NC4CCCC4)ncnc32)c1 | inactive: -1.07% | 
56 | CCc1ccc(-n2nc3ccc(NC(=O)c4ccc(C#N)cc4F)cc3n2)cc1 | inactive: -0.702% | 
57 | Fc1ccc(-c2cn3cc(Cc4ccc(Cl)cc4)sc3n2)cc1 | inactive: -20.3% | 
58 | CCC(CC)C(=O)Nc1cccc(-c2nc3ccccc3s2)c1 | inactive: 0% | 
59 | CCOc1ccc(-c2nnc(SCC(=O)NCc3ccc(C)cc3)nc2-c2ccc(OCC)cc2)cc1 | inactive: -7.64% | 
60 | CCOc1ccccc1C1CC(=O)Oc2c1c(=O)n(C)c1ccccc21 (stereo unspecified) | inactive: -8.45% | 
61 | Cc1ccc(Cl)cc1NC(=O)Cn1c(=O)c2ccccc2n2nncc12 | inactive: -3.51% | 
62 | Cc1ccccc1-c1nc2cc(NC(=O)COc3ccc(F)cc3)ccc2o1 | inactive: -10.5% | 
63 | CC1=C(C(=O)Nc2ccc(C)cc2C)C(c2ccccc2)n2ncc(C(=O)Nc3ccccc3)c2N1 (stereo unspecified) | inactive: -7.16% | 
64 | CCOC(=O)c1c(-c2ccccc2)csc1NC(=O)c1cc(-c2ccc(Cl)cc2)on1 | inactive: -8.43% | 
65 | Cc1c(CC(=O)NCCc2ccc(Cl)cc2)c(=O)oc2c(C)c3occ(C(C)(C)C)c3cc12 | inactive: -1.4% | 
66 | Cc1ccc(NC(=O)C2CCCN(S(=O)(=O)c3cccc4cccnc34)C2)c(C)c1 (stereo unspecified) | inactive: -18.6% | 
67 | CCOC(=O)c1sc(NC(=O)c2cc(-c3ccc(F)cc3)on2)c(C(=O)OCC)c1C | inactive: -0.526% | 
68 | COC(=O)c1ccc2c(=O)n(CCCCCC(=O)N3CCN(c4ccc(OC)cc4)CC3)c(=O)[nH]c2c1 | inactive: -1.18% | 
69 | CCOC(=O)CSc1nc2ccc(NC(=O)c3ccccc3F)cc2s1 | inactive: -1.2% | 
70 | CCS(=O)(=O)c1nc(S(=O)(=O)c2ccc(Cl)cc2)c(NCc2ccccc2Cl)s1 | inactive: -15.5% | 
71 | CCOc1ccc(NC(=O)CN(C)S(=O)(=O)c2cnc[nH]2)cc1 | inactive: 0.0857% | 
72 | O=C(CSc1nnc2[nH]c(=O)cc(-c3ccccc3)n12)Nc1cc(C(F)(F)F)ccc1Cl | inactive: -6.65% | 

Row | SMILES | activity change, negative = inhibition | Potency
73 | COc1ccc(NC(=O)NC(C)c2c(-n3cccc3)sc3c2CCN(C)C3)c(OC)c1 (stereo unspecified) | inactive: 0.156% | 
74 | Nc1c(C(=O)Nc2cccc(C(F)(F)F)c2)c2ccccn2c1C(=O)c1ccccc1 | inactive: -3.76% | 
75 | CC(=O)Nc1nonc1-c1nc2ccccc2n1Cc1ccccc1Br | inactive: -24% | 
76 | COc1cc2c(cc1OC)C(COc1ccc3c(C)cc(=O)oc3c1)N(C(=O)CC(C)C)CC2 (stereo unspecified) | inactive: -14.4% | 
77 | Cc1ccc2oc(-c3cc(NC(=O)/C=C/c4ccco4)ccc3Cl)nc2c1 | inactive: 12.5% | 
78 | Brc1ccc2nc(SCCOc3ccccc3)[nH]c2c1 | inactive: -18.2% | 
79 | Cc1ccc2c(c1)N(C(=O)Nc1cccc3c1CCCC3)CC(C)O2 (stereo unspecified) | inactive: -0.946% | 
80 | COC(=O)c1cc(NC(=O)c2ccc(-c3ccc(Cl)cc3Cl)o2)cc(C(=O)OC)c1 | inactive: -0.0888% | 
81 | COc1ccc(NC(=O)CCc2c(C)nc3c(-c4ccc(F)cc4)c(C)nn3c2C)c(OC)c1 | inactive: 6.61% | 
82 | Cc1ccccc1CN1CCCN(CC(=O)Nc2ccc3c(c2)OCCO3)S1(=O)=O | inactive: 3.26% | 
83 | CCOC(=O)c1noc2nc(C)n(Cc3ccc([N+](=O)[O-])cc3)c(=O)c12 | inactive: -3.15% | 
84 | Cc1cccc(Cn2nnc3c(=O)[nH]c(C4CCN(C(=O)c5ccc(F)cc5)CC4)nc32)c1 | inactive: 1.87% | 
85 | CN1CCN(C(CNC(=O)c2ccccc2)c2ccc3c(c2)OCO3)CC1 (stereo unspecified) | inactive: -0.909% | 
86 | O=C(NCc1cccc(Cl)c1)C1CCCN(c2ncnc3onc(-c4ccc(F)cc4)c23)C1 (stereo unspecified) | inactive: -0.513% | 
87 | CCn1c(=O)cc(SCC(=O)N2CCN(c3ccccc3F)CC2)c2ccccc21 | inactive: -1.88% | 
88 | CCOc1ccc(NC(=O)c2c(NC(=O)c3cccs3)sc3c2CCC(C(C)(C)C)C3)cc1 (stereo unspecified) | inactive: 2.36% | 
89 | COc1ccccc1NC(=O)c1cc(S(=O)(=O)NCCC2=CCCCC2)ccc1F | inactive: -1.04% | 
90 | CNC(=O)C1CCN(c2nc3ccccc3nc2C(F)(F)F)CC1 | inactive: -2.98% | 
91 | CCc1ccc(NC(=O)N2CCN(C(=O)c3nsc4ccccc34)CC2)cc1 | inactive: -1.46% | 
92 | O=C(Nc1ccc(C(F)(F)F)cc1)N1CCC(N2CCCCC2)CC1 | inactive: -4.94% | 
93 | Cc1ccsc1CN1CCc2nc(N3CCN(c4ccccc4F)CC3)ncc2C1 | inactive: 8.1% | 
94 | COc1cc(Cl)c(C)cc1NC(=O)c1cnc2c(-c3cccc(C)c3)c(C)nn2c1C | inactive: 0.799% | 
95 | CNC(=O)c1ccc(CSc2nc3ccncc3n2Cc2ccc(C)cc2)cc1 | inactive: -2.44% | 
96 | CCCN(C(=O)Cn1cc(S(=O)(=O)N2CCN(c3ccccc3F)CC2)c2ccccc2c1=O)c1cccc(C)c1 | inactive: -0.993% | 
